# Reference: the RNAGym collection of RNA variant scans (doi:10.1073/pnas.2313332121)
# Variants at the floor of the assay are shown more often than the library holds them.
# B1: TPR 5TU (parent)
# chain: GGAUCUUCUCGAUCUAACAAAAAAGACAAAUCUGCCACAAAGCUUGAGAGCAUCUUCGGAUGCAGAGGCGGCAGCCUUCGGUGGCGCGAUAGCGCCAACGUUCUCAACUAUGACACGCAAAACGCGUGCUCCGUUGAAUGGAGUUUAUCAUG
# Variants of: B1
# Test: polymerase ribozyme fitness, log enrichment relative to wild type (log ratio); higher = more active; in vitro selection for triplet polymerase activity
# Method in brief: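 Mutant libraries were PCR-built and transcribed for each subunit of a heterodimeric triplet polymerase ribozyme and selected for one round in triplicate at −7 °C, frozen, before gel excision of extended constructs and streptavidin-bead capture. Input and output libraries were Illumina-sequenced, keeping genotypes with ≥10 input reads and ≥1 read per output. Fitness is a logarithmic ratio of genotype to wild-type enrichment, in base 2, using inverse-variance-weighted replicate averages.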
row,Variant,polymerase ribozyme fitness (log ratio)
1,A21U C35G U55A A120U G141C,≤ -4.2
2,A21U C35U U45A A49C G58C C87U G128A,≤ -4.2
3,A21U C36A C118G U139C U146C,≤ -4.2
4,A21U C43A U61A G67U C79U G84C A89C,≤ -4.2
5,A21U C43G C96U C99U A119U,≤ -4.2
6,A21U C43U A60C G62A C69U C93U C103G U135G,≤ -4.2
7,A21U C43U C51U G62U C63U C85G C132U,≤ -4.2
8,A21U C51A U56A C76U G88C,≤ -4.2
9,A21U C51U A106U,-2.08
10,A21U C54A U61A C118U U135C A142U U146G,≤ -4.2
11,A21U C54U A64C G65U G81A,≤ -4.2
12,A21U C54U C63U G68A A73G C93G C108G U148G,≤ -4.2
13,A21U C57A A89U,-0.571
14,A21U C69A G126U G140U U145G,≤ -4.2
15,A21U C69A U78G G84A A107U,≤ -4.2
16,A21U C75A A122U,-3.97
17,A21U C76G C96U U104G C125U U134C U148G,≤ -4.2
18,A21U C79G C96U C105U U134A,≤ -4.2
19,A21U C85A C87U U101G A119U G126A,≤ -4.2
20,A21U C85U,-0.171
21,A21U C87A A107C,≤ -4.2
22,A21U C87U C96U C131G,≤ -4.2
23,A21U C87U G112U,≤ -4.2
24,A21U C93A,-1.74

row,Variant,polymerase ribozyme fitness (log ratio)
1,A21U C93G A107G,≤ -4.2
2,A21U C95U C99U,-0.768
3,A21U C96A G136A,0.203
4,A21U C96G G143U,-3.69
5,A21U C99G G100U G126A G141U A142G A150C,≤ -4.2
6,A21U G25A U44A C72A U82G C93G A142G,≤ -4.2
7,A21U G25U G46A A60G C85A A98U,≤ -4.2
8,A21U G42A G94A,≤ -4.2
9,A21U G46C A49G C85U A97C C118U U145G,≤ -4.2
10,A21U G46C G59C C93G,≤ -4.2
11,A21U G46U U55A U56G G84A U151G,≤ -4.2
12,A21U G48A G143A,≤ -4.2
13,A21U G48C G83A C118G U145A,-2.76
14,A21U G50C U53A G68A G80A U145A,≤ -4.2
15,A21U G50C U55A A73G C96U A120C,≤ -4.2
16,A21U G59C A64U G133C A142C,≤ -4.2
17,A21U G62A,0.138
18,A21U G62A G83U A113C G140U U146A,≤ -4.2
19,A21U G67A U77C G92A A110G,≤ -4.2
20,A21U G68A C85G,≤ -4.2
21,A21U G70U C72G U146G,≤ -4.2
22,A21U G84A A89G,-1.44
23,A21U G92A,-2.72
24,A21U G94U C95A U104G G117C C129A,≤ -4.2

row,Variant,polymerase ribozyme fitness (log ratio)
1,A21U G141A,1.36
2,A21U U31A C35A C103G,≤ -4.2
3,A21U U31A C85A,-0.251
4,A21U U33A G34A C79A C118U C125A C132U G133A A142C U148G,≤ -4.2
5,A21U U33C C35G U146A,≤ -4.2
6,A21U U33G U55A G92A U135A,≤ -4.2
7,A21U U44A C57A C63U G65A C87A,≤ -4.2
8,A21U U44A C79A G84U C105U A150C,≤ -4.2
9,A21U U53A U55G G92U U101A C108G G143C,≤ -4.2
10,A21U U53G U56A G68C C69U,≤ -4.2
11,A21U U55G C93A U139C U151A,≤ -4.2
12,A21U U56A A60U C93A A106U A113U C125U A137G,≤ -4.2
13,A21U U56A C57U G59U C93G C125A U135C,≤ -4.2
14,A21U U61A C93A U102G A121C,≤ -4.2
15,A21U U77A C96U G143U U146G,≤ -4.2
16,A21U U82G C93G,-3.69
17,A21U U109G C116U A142C,≤ -4.2
18,A22C A23U U53A C79A A91G C93U G94C,≤ -4.2
19,A22C A24C G25A A40G G74A U77C G141A,≤ -4.2
20,A22C A24C U61G G88U,≤ -4.2
21,A22C A26C A30G A37U U55A A66G G84C C85A C129G U148C,≤ -4.2
22,A22C A26G A30U U45G G74C C103G G140U,≤ -4.2
23,A22C A26G G46C A52C G70U C85G A97U G128A,≤ -4.2
24,A22C A26U C43U C76A C93G C118G,≤ -4.2

row,Variant,polymerase ribozyme fitness (log ratio)
1,A22C A26U C75G U135A,≤ -4.2
2,A22C A26U U31C A37C U56C A73C A91C,≤ -4.2
3,A22C A28C A40G C43U U56G C85U,≤ -4.2
4,A22C A28U A66G A91C G92C C99A A121U G143U U151C,≤ -4.2
5,A22C A28U U45A U61G C87U C118U,≤ -4.2
6,A22C A29G C54G G86C A106C G126A G133A,≤ -4.2
7,A22C A39C C96U U139A,≤ -4.2
8,A22C A39C U44G G46C C76U A107G A121U,≤ -4.2
9,A22C A39U A41C U45A C75U G86C G128U,≤ -4.2
10,A22C A40C U55A C76U U78G G86A,≤ -4.2
11,A22C A40G A60U G68C C99U,≤ -4.2
12,A22C A40U C54U G94A,-0.982
13,A22C A41U C93A A120G U130G,≤ -4.2
14,A22C A47C U56A C96U U101A C105G A120U,≤ -4.2
15,A22C A49C,≤ -4.2
16,A22C A52U U82C G86U A97G,-3.83
17,A22C A60C G88C,≤ -4.2
18,A22C A91G C123U G140C U151G,≤ -4.2
19,A22C C27G A37C A73G U146A G152U,≤ -4.2
20,A22C C27U C54U C85G A91U G112A A119U A147C A150C,≤ -4.2
21,A22C C27U U44A G74A G86A G88A C125U A137U,≤ -4.2
22,A22C C32A C36U G58C G62U C99U A121G G133A A142C,≤ -4.2
23,A22C C32G G48U U56A G100A,≤ -4.2
24,A22C C35A G42A G86C C96U U111G,≤ -4.2

row,Variant,polymerase ribozyme fitness (log ratio)
1,A22C C35G G92A,≤ -4.2
2,A22C C35U A40U C54U U148C,≤ -4.2
3,A22C C36A C75A C76G G83C U101A G136C G140C,≤ -4.2
4,A22C C36U C51A C75G C87U,≤ -4.2
5,A22C C36U G58A A60C G74U A113U U146C,≤ -4.2
6,A22C C43U A49G C51A G58U C95U U139G U146G,≤ -4.2
7,A22C C43U A89U A115C G124C,≤ -4.2
8,A22C C51G G80C,≤ -4.2
9,A22C C57A C118U,-1.03
10,A22C C57U A60U C69G,-1.7
11,A22C C57U C75A U78G A91U A119C A121G,≤ -4.2
12,A22C C75G G84U C93U U109G G143C,≤ -4.2
13,A22C C75G G140C C149G,≤ -4.2
14,A22C C87U C131A U139G,≤ -4.2
15,A22C C108U G143C U144G,≤ -4.2
16,A22C C125U,-0.469
17,A22C C131G,-3.49
18,A22C G25C G92C U127G A138G,≤ -4.2
19,A22C G25U C38U A91C C105U C118U,≤ -4.2
20,A22C G34C G48A G86C A121G,≤ -4.2
21,A22C G34U U82A C93A,≤ -4.2
22,A22C G46A G59C A91C C99G U101G C116G A138C,≤ -4.2
23,A22C G46A G84C C95U U130C,≤ -4.2
24,A22C G48A U55A G62U C87U U101G U151A,≤ -4.2

row,Variant,polymerase ribozyme fitness (log ratio)
1,A22C G48U A60G,0.164
2,A22C G50A G83A C95U U139C G143U,≤ -4.2
3,A22C G50A G100A C131A U134C,≤ -4.2
4,A22C G50C A110C G141A,≤ -4.2
5,A22C G50C C114A,≤ -4.2
6,A22C G50C U61A C87A,≤ -4.2
7,A22C G50C U104G,≤ -4.2
8,A22C G59C U78C C85A U144A A150U,≤ -4.2
9,A22C G65C C85U U101A,≤ -4.2
10,A22C G67C G68A G88A U148A,≤ -4.2
11,A22C G83U U90C C105A U135C G140U,≤ -4.2
12,A22C G84A C99A G152U,≤ -4.2
13,A22C G84C G133U,≤ -4.2
14,A22C G86U C131A,≤ -4.2
15,A22C G92C U139C G152A,≤ -4.2
16,A22C U31A G50U C116U A137U,≤ -4.2
17,A22C U33A A52G G70A A91C C116U,≤ -4.2
18,A22C U44A A47C,≤ -4.2
19,A22C U44A U53A C72G U102G C132U A137C U148G,≤ -4.2
20,A22C U53A G80A U82C C85A G92C G124U,≤ -4.2
21,A22C U53A G84C G112A C129A U134G A147C,≤ -4.2
22,A22C U55A G124A A137C U144A,≤ -4.2
23,A22G A23C C32G C72U,≤ -4.2
24,A22G A23U A40C U77C C85A U134A G143A,≤ -4.2

row,Variant,polymerase ribozyme fitness (log ratio)
1,A22G A23U A52U A60U G83A G92A U146G,≤ -4.2
2,A22G A24G G59U C87G A110G G143U G152C,≤ -4.2
3,A22G A24G G92U,≤ -4.2
4,A22G A26U C27U C38U G84U C85A U101G U139A,≤ -4.2
5,A22G A28C A29G G34C U55A C76A C79G C87A C103G G124C U144C,≤ -4.2
6,A22G A28U A29G A37C G48A A64C C85G C99U C125A A137G,≤ -4.2
7,A22G A28U U53A C85G A91C C96U,≤ -4.2
8,A22G A29G C75U A89U C93U C103U,≤ -4.2
9,A22G A40C A52C A73C G83C C114A G136C G140A U148G,≤ -4.2
10,A22G A41C G48U G58A G62C C76U C96G C114A,≤ -4.2
11,A22G A47C G59C C95U U104G A120G U145A C149A,≤ -4.2
12,A22G A66G A73G C96A A97G G124U U134C,≤ -4.2
13,A22G A73U C76G C85G C95A C96U,≤ -4.2
14,A22G A89U C132G,≤ -4.2
15,A22G C27G C38U A47C G86A A121U G143U,≤ -4.2
16,A22G C32A G68A G80C C87U,≤ -4.2
17,A22G C36A G71A C85A C93U G117A A137U A147U,≤ -4.2
18,A22G C36U G84A U90G C99G U144A,≤ -4.2
19,A22G C38A U55A G58C C72U C93A U102G G112C C131G,≤ -4.2
20,A22G C38U C95U A107C G128A,≤ -4.2
21,A22G C51A U55A C87G U104G,≤ -4.2
22,A22G C51G A91U G94U U144C,≤ -4.2
23,A22G C51U G83A,0.818
